Laboratory results from the supplement of paper PMC9046079.
Counter-ions that a name gives are not always drawn. ± gives the standard deviation of the averaged measurements. Some of the results follow.

Assays:
[1] = system: murine small intestinal organoids (ENR+CD Paneth differentiation); experiment: cellular ATP (CellTiter-Glo 3D) relative to plate median (log10 fold change); higher = more viable cells; conditions: 6 d
[2] = system: murine small intestinal organoids (ENR+CD Paneth differentiation); experiment: carbachol-stimulated secreted lysozyme activity relative to plate median (log10 fold change); higher = more Paneth cell lysozyme secretion; conditions: 6 d, carbachol 10 µM
[3] = system: murine small intestinal organoids (ENR+CD Paneth differentiation); experiment: basal (non-stimulated) secreted lysozyme activity relative to plate median (log10 fold change); higher = more Paneth cell lysozyme secretion; conditions: 6 d
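Throughout, for basal (non-stimulated) secreted lysozyme activity relative to plate median: ISC-enriched organoid precursors grown as 2.5D pseudo-monolayer on Matrigel, compound given on day 0 and day 3, plate values LOESS-normalized before median fold change, three murine donors.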
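Throughout, for cellular ATP (CellTiter-Glo 3D) relative to plate median: 2.5D pseudo-monolayer culture of ISC-enriched organoids partly embedded atop Matrigel, compound added on day 0 and again on day 3, per-plate LOESS correction before median fold change.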

SMILES	cellular ATP (log10) ([1]; 0.08 µM)	cellular ATP (log10) ([1]; 0.4 µM)	cellular ATP (log10) ([1]; 2 µM)	cellular ATP (log10) ([1]; 10 µM)	carbachol-stimulated secreted lysozyme activity (log10) ([2]; 0.08 µM)	carbachol-stimulated secreted lysozyme activity (log10) ([2]; 0.4 µM)	carbachol-stimulated secreted lysozyme activity (log10) ([2]; 2 µM)	carbachol-stimulated secreted lysozyme activity (log10) ([2]; 10 µM)	basal (log10) ([3]; 0.08 µM)	basal (log10) ([3]; 0.4 µM)	basal (log10) ([3]; 2 µM)	basal (log10) ([3]; 10 µM)
CCOc1nc2cccc(C(=O)O)c2n1Cc1ccc(-c2ccccc2-c2nnn[nH]2)cc1 [Candesartan]	-0.00318 ± 0.23	-0.125 ± 0.26	-0.198 ± 0.24	-0.253 ± 0.26	-0.0495 ± 0.19	-0.0799 ± 0.02	-0.102 ± 0.19	-0.0629 ± 0.096	0.013 ± 0.16	-0.0147 ± 0.1	0.00743 ± 0.091	-0.0507 ± 0.039
CN1CCC[C@@H]1CCO[C@](C)(c1ccccc1)c1ccc(Cl)cc1 [Clemastine Fumarate]	0.242 ± 0.26	0.0362 ± 0.19	0.0241 ± 0.094	-0.424 ± 0.34	0.0311 ± 0.1	-0.106 ± 0.051	-0.0718 ± 0.063	0.023 ± 0.2	0.0241 ± 0.11	-0.0261 ± 0.051	-0.0143 ± 0.035	-0.0614 ± 0.048
CC(NC(=O)c1ccccc1/N=C/c1c(O)ccc2ccccc12)c1ccccc1 (stereo unspecified) [Sirtinol]	-0.164 ± 0.25	0.0067 ± 0.013	-0.0961 ± 0.14	-0.0377 ± 0.064	0.0284 ± 0.042	0.0568 ± 0.16	-0.0167 ± 0.14	0.209 ± 0.26	0.109 ± 0.041	0.0647 ± 0.17	0.0326 ± 0.1	0.0404 ± 0.038
C=CC(=O)N1CCC[C@@H](n2nc(-c3ccc(Oc4ccccc4)cc3)c3c(N)ncnc32)C1	-0.0274 ± 0.28	-0.466 ± 0.61	-0.521 ± 0.35	-0.931 ± 0.82	-0.162 ± 0.026	-0.229 ± 0.054	-0.354 ± 0.13	-0.392 ± 0.082	-0.0711 ± 0.026	-0.141 ± 0.078	-0.202 ± 0.11	-0.199 ± 0.093
COc1ccc(-c2nc3cc(C4=NNC(=O)CC4C)ccc3[nH]2)cc1 (stereo unspecified) [Pimobendan]	-0.022 ± 0.26	0.193 ± 0.15	0.206 ± 0.24	0.139 ± 0.13	0.194 ± 0.18	0.0705 ± 0.015	0.227 ± 0.27	-0.122 ± 0.092	0.0377 ± 0.059	0.0627 ± 0.067	0.129 ± 0.14	-0.0663 ± 0.047
CCN(Cc1ccncc1)C(=O)C(CO)c1ccccc1 (stereo unspecified) [Tropicamide]	0.146 ± 0.39	-0.141 ± 0.052	0.25 ± 0.3	0.0544 ± 0.3	-0.127 ± 0.14	-0.0186 ± 0.095	0.102 ± 0.023	0.0435 ± 0.044	-0.0836 ± 0.097	0.0681 ± 0.11	0.14 ± 0.22	0.032 ± 0.075
NC(=O)C1CCCc2c1[nH]c1ccc(Cl)cc21 (stereo unspecified) [EX 527 (Selisistat)]	0.24 ± 0.068	0.174 ± 0.11	0.341 ± 0.18	0.32 ± 0.22	0.0731 ± 0.2	0.0613 ± 0.0094	-0.0997 ± 0.2	-0.0736 ± 0.11	0.1 ± 0.091	0.0588 ± 0.048	0.03 ± 0.067	0.0567 ± 0.07
CCc1cc(Nc2nccc(-c3c(-c4ccc(OC)c(C(=O)Nc5c(F)cccc5F)c4)nc4ccccn34)n2)c(OC)cc1N1CCC(N2CCN(S(C)(=O)=O)CC2)CC1	0.202 ± 0.21	-0.0713 ± 0.3	-0.57 ± 0.43	-0.691 ± 0.15	0.113 ± 0.026	0.00503 ± 0.045	-0.287 ± 0.11	-0.331 ± 0.044	0.102 ± 0.038	0.112 ± 0.25	-0.179 ± 0.045	-0.163 ± 0.085
Oc1ccc2ccccc2c1SSc1c(O)ccc2ccccc12	0.219 ± 0.031	-0.332 ± 0.61	-0.0845 ± 0.028	-0.0536 ± 0.13	0.116 ± 0.056	-0.0321 ± 0.12	0.107 ± 0.15	-0.014 ± 0.094	0.00354 ± 0.07	0.00327 ± 0.066	-0.00109 ± 0.086	-0.0214 ± 0.06
CCc1c2c(nc3ccc(O)cc13)-c1cc3c(c(=O)n1C2)COC(=O)[C@]3(O)CC	-0.953 ± 0.44	-0.778 ± 0.82	-0.89 ± 0.91	-1.17 ± 0.24	-0.533 ± 0.046	-0.226 ± 0.5	-0.396 ± 0.24	-0.395 ± 0.25	-0.305 ± 0.16	-0.126 ± 0.28	-0.233 ± 0.15	-0.257 ± 0.17
CN(c1ncccc1CNc1nc(Nc2ccc3c(c2)CC(=O)N3)ncc1C(F)(F)F)S(C)(=O)=O	-0.114 ± 0.091	-0.217 ± 0.1	-0.549 ± 0.037	-0.949 ± 0.27	-0.104 ± 0.051	-0.267 ± 0.056	-0.407 ± 0.13	-0.514 ± 0.0084	-0.0676 ± 0.024	-0.152 ± 0.094	-0.234 ± 0.15	-0.251 ± 0.09
CC1(COc2ccc3c(c2)ncn3-c2ccc3cccc(N4CCC(N)CC4)c3n2)COC1	-0.0689 ± 0.22	-0.0245 ± 0.28	0.0532 ± 0.37	-0.338 ± 0.25	0.0352 ± 0.083	0.0284 ± 0.035	0.159 ± 0.069	-0.292 ± 0.25	0.121 ± 0.017	0.0506 ± 0.049	0.122 ± 0.024	-0.224 ± 0.15
O=c1oc2cc(O)ccc2s1 [Tioxolone]	0.262 ± 0.21	0.0555 ± 0.13	0.0751 ± 0.11	0.282 ± 0.22	0.191 ± 0.31	-0.000561 ± 0.099	-0.0136 ± 0.16	0.0249 ± 0.062	0.112 ± 0.12	-0.0254 ± 0.087	0.00383 ± 0.11	-0.00748 ± 0.063
CO[C@H]1C[C@@H]2CC[C@@H](C)[C@@](O)(O2)C(=O)C(=O)N2CCCC[C@H]2C(=O)O[C@H]([C@H](C)C[C@@H]2CC[C@@H](OP(C)(C)=O)[C@H](OC)C2)CC(=O)[C@H](C)/C=C(\C)[C@@H](O)[C@@H](OC)C(=O)[C@H](C)C[C@H](C)/C=C/C=C/C=C/1C [Ridaforolimus (Deforolimus, MK-8669)]	0.443 ± 0.34	-0.156 ± 0.43	-0.339 ± 0.64	-0.707 ± 1.1	0.0543 ± 0.036	-0.131 ± 0.23	-0.146 ± 0.34	-0.128 ± 0.3	0.0128 ± 0.013	-0.0065 ± 0.25	-0.0322 ± 0.23	-0.09 ± 0.21
O=c1cc(-c2ccc(O)cc2)oc2cc(O)cc(O)c12 [Apigenin]	0.246 ± 0.15	0.214 ± 0.25	0.315 ± 0.27	0.0265 ± 0.16	0.181 ± 0.18	0.148 ± 0.1	0.167 ± 0.081	0.0952 ± 0.052	0.132 ± 0.071	0.13 ± 0.1	0.232 ± 0.11	0.0973 ± 0.094
COc1cc(OC)c(/C=C/S(=O)(=O)Cc2ccc(OC)c(NCC(=O)O)c2)c(OC)c1	-1.06 ± 0.013	-0.926 ± 0.82	-0.99 ± 1	-0.467 ± 0.46	-0.398 ± 0.04	-0.204 ± 0.33	-0.276 ± 0.24	-0.234 ± 0.23	-0.233 ± 0.1	-0.0935 ± 0.15	-0.197 ± 0.094	-0.16 ± 0.14
O=C(c1ccc(Nc2nccc(-c3cc4ccccc4s3)n2)cc1)N1CCC(N2CCCC2)CC1 [IKK-16 (IKK Inhibitor VII)]	0.0584 ± 0.29	-0.0509 ± 0.032	-0.431 ± 0.33	-0.95 ± 0.43	0.0335 ± 0.043	0.017 ± 0.042	-0.116 ± 0.17	-0.499 ± 0.016	0.104 ± 0.067	0.0202 ± 0.016	-0.0813 ± 0.11	-0.291 ± 0.079
C=CC(=O)Nc1cccc(Nc2nc(Nc3ccc(Oc4ccnc(C(=O)NC)c4)cc3)ncc2F)c1	0.259 ± 0.26	0.177 ± 0.13	-0.109 ± 0.37	-0.0811 ± 0.033	0.00656 ± 0.14	-0.0266 ± 0.042	0.0193 ± 0.11	-0.148 ± 0.11	0.0753 ± 0.13	-0.00772 ± 0.063	0.158 ± 0.058	-0.0431 ± 0.078
